Experimental data as given in the supplement of paper PMC4967469.

Columns and labels:
Assay in all cases: Viability of human cancer cell lines after 72 h of drug (GDSC screen)
[1] = compound: COCC(=O)NC/C=C/c1ccc2ncnc(Nc3ccc(Oc4ccc(C)nc4)c(C)c3)c2c1 [CP724714]; details: top dose 10.24 µM; top dose inferred
Experimental: (§1)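 Human cancer cell lines in 384-well plates, medium with 10% serum, drug for 72 h over a 256-fold dose range (nine 2-fold or five 4-fold steps up to the top dose). Adherent lines were fixed and stained with the nucleic acid dye Syto60, suspension lines read with resazurin; signal relative to control wells, capped at 0 and 100%. One two-parameter sigmoid per drug and line, fitted in a mixed model over all curves with the slope shared within a line.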

[2] = compound: Cc1cnc(CNC(=O)c2c(=O)c3ccc(N4CCCN(C)CC4)nc3n3c2sc2ccccc23)cn1 [CX-5461]; details: top dose 10.24 µM; top dose inferred
Experimental: as §1

[3] = compound: COC1=CC(c2cc3ccccc3[nH]2)=N/C1=C\c1[nH]c(C)cc1C [Obatoclax mesylate]; details: top dose 16 µM
Experimental: as §1

[4] = compound: Cc1cccc(Nc2nc(-c3ccncc3)cs2)c1 [STF-62247]; details: top dose 10.24 µM; top dose inferred
Experimental: as §1

MDA-MB-231 (breast, adherent)
AUC [1]: 0.971
IC50 [1]: > 10.2 µM
AUC [2]: 0.978
IC50 [2]: > 10.2 µM
AUC [3]: 0.479
IC50 [3]: 0.875 µM
AUC [4]: 0.975
IC50 [4]: > 10.2 µM

MDA-MB-330 (breast, adherent)
AUC [1]: 0.963
IC50 [1]: > 10.2 µM
AUC [2]: 0.985
IC50 [2]: > 10.2 µM
AUC [3]: 0.601
IC50 [3]: 1.97 µM
AUC [4]: 0.986
IC50 [4]: > 10.2 µM

MDA-MB-361 (breast, adherent)
AUC [1]: 0.946
IC50 [1]: > 10.2 µM
AUC [2]: 0.989
IC50 [2]: > 10.2 µM
AUC [3]: 0.457
IC50 [3]: 0.765 µM
AUC [4]: 0.988
IC50 [4]: > 10.2 µM

MDA-MB-415 (breast, adherent)
AUC [1]: 0.981
IC50 [1]: > 10.2 µM
AUC [2]: 0.983
IC50 [2]: > 10.2 µM
AUC [3]: 0.624
IC50 [3]: 2.48 µM
AUC [4]: 0.982
IC50 [4]: > 10.2 µM

MDA-MB-436 (breast, adherent)
AUC [1]: 0.977
IC50 [1]: > 10.2 µM
AUC [2]: 0.903
IC50 [2]: > 10.2 µM
AUC [3]: 0.508
IC50 [3]: 1.06 µM
AUC [4]: 0.983
IC50 [4]: > 10.2 µM

MDA-MB-453 (breast, adherent)
AUC [1]: 0.807
IC50 [1]: 5.96 µM
AUC [2]: 0.881
IC50 [2]: > 10.2 µM
AUC [3]: 0.571
IC50 [3]: 1.59 µM
AUC [4]: 0.972
IC50 [4]: > 10.2 µM

MDA-MB-468 (breast, adherent)
AUC [1]: 0.956
IC50 [1]: > 10.2 µM
AUC [2]: 0.906
IC50 [2]: > 10.2 µM
AUC [3]: 0.49
IC50 [3]: 0.937 µM
AUC [4]: 0.968
IC50 [4]: > 10.2 µM

ME-180 (cervix, adherent)
AUC [1]: 0.929
IC50 [1]: > 10.2 µM
AUC [2]: 0.905
IC50 [2]: > 10.2 µM
AUC [3]: 0.557
AUC [4]: 0.986
IC50 [4]: > 10.2 µM

MEL-JUSO (melanoma, adherent)
AUC [1]: 0.971
IC50 [1]: > 10.2 µM
AUC [2]: 0.746
IC50 [2]: 3.58 µM
AUC [3]: 0.095
IC50 [3]: < 0.0625 µM
AUC [4]: 0.973
IC50 [4]: > 10.2 µM

MES-SA (uterus, adherent)
AUC [1]: 0.987
IC50 [1]: > 10.2 µM
AUC [2]: 0.991
IC50 [2]: > 10.2 µM
AUC [3]: 0.341
IC50 [3]: 0.391 µM
AUC [4]: 0.992
IC50 [4]: > 10.2 µM

MFE-280 (endometrium, adherent)
AUC [1]: 0.922
IC50 [1]: > 10.2 µM
AUC [2]: 0.92
IC50 [2]: > 10.2 µM
AUC [3]: 0.507
IC50 [3]: 1.05 µM
AUC [4]: 0.957
IC50 [4]: > 10.2 µM

MFE-296 (endometrium, adherent)
AUC [1]: 0.981
IC50 [1]: > 10.2 µM
AUC [2]: 0.981
IC50 [2]: > 10.2 µM
AUC [3]: 0.231
IC50 [3]: 0.154 µM
AUC [4]: 0.982
IC50 [4]: > 10.2 µM

MFE-319 (endometrium, adherent)
AUC [1]: 0.979
IC50 [1]: > 10.2 µM
AUC [2]: 0.989
IC50 [2]: > 10.2 µM
AUC [3]: 0.252
IC50 [3]: 0.199 µM
AUC [4]: 0.987
IC50 [4]: > 10.2 µM

MG-63 (osteosarcoma, adherent)
AUC [1]: 0.984
IC50 [1]: > 10.2 µM
AUC [2]: 0.812
IC50 [2]: 6.61 µM
AUC [3]: 0.273
IC50 [3]: 0.202 µM
AUC [4]: 0.982
IC50 [4]: > 10.2 µM

MHH-ES-1 (Ewing sarcoma, adherent)
AUC [1]: 0.979
IC50 [1]: > 10.2 µM
AUC [2]: 0.724
IC50 [2]: 2.74 µM
AUC [3]: 0.257
IC50 [3]: 0.203 µM
AUC [4]: 0.986
IC50 [4]: > 10.2 µM

MIA-PaCa-2 (pancreas, adherent)
AUC [1]: 0.971
IC50 [1]: > 10.2 µM
AUC [2]: 0.985
IC50 [2]: > 10.2 µM
AUC [3]: 0.312
IC50 [3]: 0.28 µM
AUC [4]: 0.972
IC50 [4]: > 10.2 µM

MKN1 (stomach, adherent)
AUC [1]: 0.967
IC50 [1]: > 10.2 µM
AUC [2]: 0.952
IC50 [2]: > 10.2 µM
AUC [3]: 0.295
IC50 [3]: 0.256 µM
AUC [4]: 0.983
IC50 [4]: > 10.2 µM

MKN28 (stomach, adherent)
AUC [1]: 0.978
IC50 [1]: > 10.2 µM
AUC [2]: 0.601
IC50 [2]: 1.22 µM
AUC [3]: 0.212
IC50 [3]: 0.139 µM
AUC [4]: 0.971
IC50 [4]: > 10.2 µM

MKN45 (stomach, adherent)
AUC [1]: 0.981
IC50 [1]: > 10.2 µM
AUC [2]: 0.911
IC50 [2]: > 10.2 µM
AUC [3]: 0.577
IC50 [3]: 1.72 µM
AUC [4]: 0.983
IC50 [4]: > 10.2 µM

ML-1 (thyroid, adherent)
AUC [1]: 0.984
IC50 [1]: > 10.2 µM
AUC [2]: 0.944
IC50 [2]: > 10.2 µM
AUC [3]: 0.313
IC50 [3]: 0.272 µM
AUC [4]: 0.984
IC50 [4]: > 10.2 µM

MOG-G-CCM (glioma, adherent)
AUC [1]: 0.951
IC50 [1]: > 10.2 µM
AUC [2]: 0.811
IC50 [2]: 6.59 µM
AUC [3]: 0.245
IC50 [3]: 0.16 µM
AUC [4]: 0.942
IC50 [4]: > 10.2 µM

MOG-G-UVW (glioma, adherent)
AUC [1]: 0.986
IC50 [1]: > 10.2 µM
AUC [2]: 0.62
IC50 [2]: 1.35 µM
AUC [3]: 0.229
IC50 [3]: 0.168 µM
AUC [4]: 0.98
IC50 [4]: > 10.2 µM

MS751 (cervix, adherent)
AUC [1]: 0.984
IC50 [1]: > 10.2 µM
AUC [2]: 0.99
IC50 [2]: > 10.2 µM
AUC [3]: 0.585
IC50 [3]: 1.67 µM
AUC [4]: 0.99
IC50 [4]: > 10.2 µM

Mewo (melanoma, adherent)
AUC [1]: 0.968
IC50 [1]: > 10.2 µM
AUC [2]: 0.985
IC50 [2]: > 10.2 µM
AUC [3]: 0.682
IC50 [3]: 3.59 µM
AUC [4]: 0.972
IC50 [4]: > 10.2 µM

NAMALWA (Burkitt lymphoma, suspension)
AUC [1]: 0.976
IC50 [1]: > 10.2 µM
AUC [2]: 0.369
IC50 [2]: 0.296 µM
AUC [3]: 0.163
IC50 [3]: 0.119 µM
AUC [4]: 0.991
IC50 [4]: > 10.2 µM

NCI-H28 (mesothelioma, adherent)
AUC [1]: 0.978
IC50 [1]: > 10.2 µM
AUC [2]: 0.937
IC50 [2]: > 10.2 µM
AUC [3]: 0.481
IC50 [3]: 0.872 µM
AUC [4]: 0.979
IC50 [4]: > 10.2 µM

NCI-H196 (small cell lung carcinoma, adherent)
AUC [1]: 0.988
IC50 [1]: > 10.2 µM
AUC [2]: 0.988
IC50 [2]: > 10.2 µM
AUC [3]: 0.783
IC50 [3]: 7.06 µM
AUC [4]: 0.845
IC50 [4]: 7.93 µM

NCI-H292 (lung adenocarcinoma, adherent)
AUC [1]: 0.978
IC50 [1]: > 10.2 µM
AUC [2]: 0.585
IC50 [2]: 1.15 µM
AUC [3]: 0.282
IC50 [3]: 0.209 µM
AUC [4]: 0.98
IC50 [4]: > 10.2 µM

NCI-H358 (lung adenocarcinoma, adherent)
AUC [1]: 0.889
IC50 [1]: > 10.2 µM
AUC [2]: 0.55
IC50 [2]: 0.888 µM
AUC [3]: 0.229
IC50 [3]: 0.146 µM
AUC [4]: 0.977
IC50 [4]: > 10.2 µM

NCI-H441 (lung adenocarcinoma, adherent)
AUC [1]: 0.97
IC50 [1]: > 10.2 µM
AUC [2]: 0.981
IC50 [2]: > 10.2 µM
AUC [3]: 0.302
IC50 [3]: 0.219 µM
AUC [4]: 0.979
IC50 [4]: > 10.2 µM

NCI-H460 (large cell lung carcinoma, adherent)
AUC [1]: 0.989
IC50 [1]: > 10.2 µM
AUC [2]: 0.99
IC50 [2]: > 10.2 µM
AUC [3]: 0.171
IC50 [3]: 0.115 µM
AUC [4]: 0.989
IC50 [4]: > 10.2 µM

A lower IC50 marks a more sensitive line; a fit beyond the top or the lowest dose is shown as a bound at that dose. AUC sums up the same curve from the lowest dose to the 256-fold higher top dose; it is 1 without any effect and falls as sensitivity rises. For some of these results: Where the top dose is marked as inferred, it comes from the curve model; the source does not state it.
